In PubChem BioAssay AID686971 (National Center for Advancing Translational Sciences (NCATS), 2013):
In all, about 360,000 compounds went through this assay and about 7,500 (2.1%) were called active. The inconclusive results got no clear call from the source; some entries with a clear call stand among them for comparison. Calls come from the whole dose curve; as a rule, active = well fitted cell-killing curve with a large enough effect; inconclusive = small, poorly fitted or top-dose-only effect, or effect the other way, or another doubt; inactive = no such curve, though single readings can be large or run the other way. No potency is given beside an inconclusive call; the fits are too rough.

Experiment: qHTS for induction of synthetic lethality in tumor cells producing 2HG: qHTS for the HT-1080-IDH1KD cell line;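 for activity, negative = toxicity: 0% = DMSO wells and -100% = cell-free medium wells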
Conditions: HT-1080 IDH1 knockdown viability, ATP luminescence, 48 h; activity, negative = toxicity: at 46.1 µM (top of the series) unless noted
Procedure, shortened: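 In this qHTS, HT-1080 cells depleted of IDH1 are exposed for 48 h at 37 °C to compound titrations. Toxicity is scored from CellTiter-Glo luminescence, with DMSO as full viability and medium alone as none.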
Potency is the fitted concentration of half-maximal effect; tags give direction and shape of the fitted curve.

| SMILES | Potency | activity, negative = toxicity |
| --- | --- | --- |
| Cc1ccc(C(=O)Nc2ccc(C(=O)N3CCCCC3)cc2)o1 | inconclusive [cytotoxic, partial curve] | – |
| COC(=O)c1c(-c2ccccc2OC)sc2ccccc12 | inconclusive [cytotoxic, single point] | – |
| Cc1ccc(NC(=O)c2ccc(C(=O)c3ccccc3)cc2)nc1 | inconclusive [cytotoxic, partial curve] | – |
| COc1ccc(C(=O)Nc2cc(OC)nc(OC)n2)cc1 | – | inactive: -12.9% |
| CC(=O)N1CCCc2cc(S(=O)(=O)N(C)CC(=O)Nc3ccccc3)ccc21 | – | inactive: 9.18% |
| Cc1ccc(-c2nnc(SCC(=O)N/N=C/c3ccc(C)s3)n2-c2ccccc2)cc1 | inconclusive [cytotoxic, single point] | – |
| CCc1ccc(C(O)c2ncc(-c3ccc(C)cc3)[nH]2)cc1 (stereo not drawn) | – | inactive: -18.7% |
| COc1ccc(CC(=O)N/N=C/c2c(C)n(C)c3ccccc23)cc1OC | active: 13 µM | – |
| COc1ccc(C(C)=O)cc1COC(=O)C1CCN(C(=O)c2ccc(Cl)cc2)CC1 | – | inactive: 6.82% |
| O=C(Nc1cccc(Cl)c1N1CCCCC1)c1ccc2c(c1)OCCO2 | inconclusive [cytotoxic, single point] | – |
| Cc1cccc(COC[C@H](CC(C)C)N2CCN(C(=O)c3ccc(C(C)(C)C)cc3)CCC2=O)c1 | inconclusive [cytotoxic, single point] | – |
| O=C(Oc1ccc2ccccc2c1Br)N1CCCCCC1 | inconclusive [cytotoxic, single point] | – |
| CCNC(=O)C1(C)CCCN(CC(=O)c2ccccc2OC)C1 (stereo not drawn) | inconclusive [rising, single point] | – |
| Fc1ccc(CNC(=S)Nc2cccc(C(F)(F)F)c2)cc1 | inconclusive [cytotoxic, single point] | – |
| COc1ccc(N2CCN(S(=O)(=O)c3cc(Br)cnc3N)CC2)cc1 | inconclusive [rising, partial curve, poor fit] | – |
| Cc1ncc(CN2CCN(CCc3ccccc3)C(CCO)C2)s1 (stereo not drawn) | – | inactive: 8.28% |
| O=[N+]([O-])c1cn(Cc2ccc(Cl)cc2)cn1 | inconclusive [cytotoxic, partial curve] | – |
| COc1cccc(C2C3=C(N=c4s/c(=C\c5cccc(O)c5)c(=O)n42)c2ccccc2CC3)c1OC (stereo not drawn) | inconclusive [cytotoxic, single point] | – |
| Cc1nnc(Sc2nc3ccccc3o2)c2ccccc12 | active: 20.6 µM | – |
| CCCCNc1c(-c2ccc(SC(C)CC)c(OC)c2)nc2ccc(C)cn12 (stereo not drawn) | inconclusive [cytotoxic, single point] | – |
| CCC1CCCCN1C(=O)c1cc(-c2ccc(Cl)c(Cl)c2)on1 (stereo not drawn) | – | inactive: -18.4% |
| Cc1ccc(S(=O)(=O)Nc2ccc(N3CCCCC3)cc2)cc1 | – | inactive: -11.9% |
| COc1ccc2c(c1)CCC(=O)[C@H](O)C[C@H](c1ccccc1)OC2=O | – | inactive: -1.03% |
| COc1ccc(C)cc1S(=O)(=O)Nc1cc2c3c(c1)CCC(=O)N3CCC2 | – | inconclusive: -30.4% [cytotoxic] |

| SMILES | Potency | activity, negative = toxicity |
| --- | --- | --- |
| Cc1nn(-c2ccccc2)c(C)c1/C=N/n1c(-c2ccc(C(C)(C)C)cc2)n[nH]c1=S | inconclusive [cytotoxic, single point] | – |
| O=C(Nc1nc(-c2ccccn2)cs1)c1ccc2c(c1)OCCO2 | inconclusive [cytotoxic, partial curve] | – |
| Cc1cc(C)n(C(=O)N(c2ccccc2)c2ccccc2)n1 | – | inactive: -11.7% |
| COc1ccc(C(=O)Nc2nc3c(s2)Cc2cc(OC)ccc2-3)cc1 | – | inactive: -0.0887% |
| O=Nc1ccc(NOC(=O)c2ccccc2Br)cc1 | – | inactive: -0.0185% |
| COc1cc(S(=O)(=O)N2CCN(c3ccccc3)CC2)ccc1F | – | inactive: 1.51% |
| Cc1c(CN2CCC(CO)(Cc3cccc(C(F)(F)F)c3)CC2)c2ccccc2n1C | inconclusive [cytotoxic, single point] | – |
| Cc1ccc(NC(=O)c2ccc(=O)[nH]n2)cc1S(=O)(=O)Nc1ccc(SC(F)F)cc1 | – | inactive: -24.8% |
| COc1ccc(OCCNC(=O)c2ccccc2OCC(=O)Nc2ccc(NC(C)=O)cc2)cc1 | – | inactive: -3.17% |
| CC(C)NC(=O)c1c(O)c2ccccc2[nH]c1=O | active: 3.16 µM | – |
| COC1=C(OC)C(=O)c2ccccc2C1=O | inconclusive [cytotoxic, single point] | – |
| CC[C@@H]1C(c2cccc(Cl)c2)=NN(c2ccc(Br)cc2)[C@H]1C(=O)N1CCOC1=O | inconclusive [cytotoxic, single point] | – |
| O=C(NC(c1ccc(-c2ccccc2)cc1)c1cnccn1)C1CCN(Cc2ccc(Oc3ccccc3)cc2)CC1 (stereo not drawn) | inconclusive [cytotoxic, single point] | – |
| CC1(C)OC(c2ccccc2)=C/C(=C\C=N\NC(=O)c2ccncc2)O1 | inconclusive [cytotoxic, partial curve] | – |
| COC(=O)c1[nH]c2c(c1C)C(=O)CC(c1ccccc1)C2 (stereo not drawn) | inconclusive [cytotoxic, full curve] | – |
| O=C1CSC(=S)N1Cc1cccnc1 | inconclusive [cytotoxic, partial curve] | – |
| CCCCn1c(SCC(=O)N2CCN(c3ccccc3)CC2)nc2ccsc2c1=O | inconclusive [cytotoxic, single point] | – |
| CCOC(=O)c1c(-c2ccccc2)oc2ccc(OCC)cc12 | – | inactive: 3.93% |
| Cc1ccc(-c2nc3ccccc3c(=O)n2-c2c(C)n(C)n(-c3ccccc3)c2=O)cc1 | – | inconclusive: 18.4% |
| COc1ccccc1-c1cc(C(=O)N/N=C/c2ccoc2)c2ccccc2n1 | – | inactive: -0.0866% |
| O=C(COc1ccc(Cl)cc1Cl)N(Cc1ccco1)C1CCS(=O)(=O)C1 (stereo not drawn) | – | inactive: 4.98% [at 9.24 µM] |
| Cc1ccc(NC(=O)c2ccc([N+](=O)[O-])o2)cc1S(=O)(=O)N1CCOCC1 | active: 6.51 µM | – |
| COc1ccc(-n2c(SCc3cn4c(C)cccc4n3)nc3ccccc3c2=O)cc1OC | inconclusive [cytotoxic, partial curve] | – |
| CC1(C)N=C(N)NC(Nc2ccccc2)=N1 | inconclusive [cytotoxic, full curve] | – |
